According to PubChem BioAssay AID624417 (National Center for Advancing Translational Sciences (NCATS), 2012):
Screen size: about 410,000 compounds; about 6,400 (1.6%) were called active. Inconclusive results, whose numbers are uncertain, are shown with a selection of clear calls. The call rests on the fitted dose curve; in most records, active means well fitted inhibition curve with a large enough effect; inconclusive means small, poorly fitted or top-dose-only effect; inactive means no such curve, though single readings can be large or run the other way. No potency is given beside an inconclusive call; the fits are too rough.
Further: nearly all actives have a fitted effect of over 55% in size.
On the % scale 0 is the no-effect control and ±100 the full control effect; potency means the concentration at half of the fitted maximal effect; tags describe the fitted curve by direction and shape.

The compounds below were run against Glucagon-like peptide 1 receptor (Homo sapiens) (UniProt P43220) (assay: qHTS of GLP-1 Receptor Inverse Agonists (Inhibition Mode)). Conditions: HEK293 GLP-1R CRE-luciferase, luminescence, 24 h, GLP-1R form is constitutively active; activity change, negative = inhibition: at 38.3 µM (top of the series) unless noted.
Sequence of UniProt P43220 (P43220 whole entry, looked up): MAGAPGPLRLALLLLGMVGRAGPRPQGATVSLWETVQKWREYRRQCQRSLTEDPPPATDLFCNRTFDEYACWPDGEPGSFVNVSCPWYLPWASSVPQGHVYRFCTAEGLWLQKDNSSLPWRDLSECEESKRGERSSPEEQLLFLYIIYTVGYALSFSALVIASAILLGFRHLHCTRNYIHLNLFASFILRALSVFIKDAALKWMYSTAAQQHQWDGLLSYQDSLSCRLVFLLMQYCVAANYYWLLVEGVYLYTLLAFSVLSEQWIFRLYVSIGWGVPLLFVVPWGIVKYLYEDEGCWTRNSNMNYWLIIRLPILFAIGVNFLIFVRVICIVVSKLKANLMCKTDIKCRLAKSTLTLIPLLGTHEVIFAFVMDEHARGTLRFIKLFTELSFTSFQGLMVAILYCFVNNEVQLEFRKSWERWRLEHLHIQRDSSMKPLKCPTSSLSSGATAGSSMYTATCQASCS
How it was run: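 Luminescence readout: a drop in cAMP-driven luciferase signal flags inverse agonism at a constitutively active GLP-1R stably expressed in HEK293. Compound exposure lasted 24 hr at 37 deg C, 5% CO2.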
In the case of `CC(C(=O)N(C)Cc1ccccc1)N1CCN(C/C=C/c2ccccc2)CC1` (stereo unspecified), the Potency is reported as “inactive”. In the case of `CCN1CCN(C(=O)c2ccc(CSc3ccc(C)cc3)cc2)CC1`, the Potency is reported as inconclusive [inhibitor, full curve, poor fit]. `COc1ccc(C(C)(C)C)cc1NC(=O)c1[nH]c(C)c(C(C)=O)c1C` was tested, and the Potency was inconclusive [inhibitor, partial curve, poor fit]. `CCOc1ccc(C(=O)Nc2ncn[nH]2)cc1` was tested, and the Potency was “inactive”. For `O/N=C/c1cc2ccccc2n1Cc1ccccc1F`, the Potency was inconclusive [inhibitor, partial curve, poor fit]. With `COc1ccc(NC(=O)c2cc(S(=O)(=O)NCCC3=CCCCC3)ccc2F)cc1` the Potency was inconclusive [inhibitor, partial curve, poor fit]. `Cc1ccccc1OC1CCN(C(=O)C2CCC(=O)N(C3CCCC3)C2)CC1` (stereo unspecified) was tested, and the Potency was inconclusive [inhibitor, single point]. With `S=c1[nH]nc(CSc2nc3ccccc3s2)n1C1CCCCC1` the Potency was inconclusive [inhibitor, partial curve, poor fit]. With `CCN(CC)c1ccc(C(=O)OCc2cc(=O)oc3cc(O)ccc23)cc1` the Potency was inconclusive [inhibitor, partial curve, poor fit]. In the case of `C=CCn1c(C)cc(C(=O)CN2C(=O)c3ccccc3C2=O)c1C`, the Potency is reported as inconclusive [inhibitor, partial curve, poor fit]. `O=C(NCc1ccc2c(c1)OCO2)C1CC(c2ccc(Cl)cc2)=NO1` (stereo unspecified) was tested, and the Potency was inconclusive [inhibitor, full curve, poor fit]. With `O=[N+]([O-])c1nn(-c2ccc3c(c2)OCCO3)n(O)c1=Nc1ccc(Cl)cc1` the Potency was inconclusive [inhibitor, partial curve, poor fit]. For `CC(C(=O)N1CCc2ccccc21)N1CCN(c2cccc(C(F)(F)F)c2)CC1` (stereo unspecified), the Potency was inconclusive [inhibitor, single point]. In the case of `O=C(c1cc(COc2ccc(F)cc2Cl)on1)N1CCCC(OCc2cccnc2)C1` (stereo unspecified), the Potency is reported as inconclusive [inhibitor, partial curve, poor fit]. With `Cc1cnn(C(=S)NCCc2ccccc2)c1` the Potency was inconclusive [inhibitor, single point]. For `C/C(CC(=O)Nc1ccc(Cl)cc1C(F)(F)F)=N\NC(=O)c1ccccn1`, the Potency was inconclusive [inhibitor, single point]. With `CC(C)CC(=O)N/C(N)=N/c1nc2ccccc2o1` the Potency was inconclusive [inhibitor, single point]. For `Cc1ccc(S(=O)(=O)NCc2ccccc2)cc1C(=O)N(C)Cc1ccccc1F`, the Potency was inconclusive [inhibitor, single point]. With `COc1ccc(CC(=O)Nc2nc(C(C)(C)C)cs2)cc1` the Potency was inconclusive [inhibitor, partial curve, poor fit]. `Cc1cccc(C)c1OCCNC(=O)c1ccc2ccccc2n1` was tested, and the Potency was inconclusive [inhibitor, single point]. In the case of `COc1ccc(NS(=O)(=O)c2cccc(Cl)c2Cl)cc1S(=O)(=O)N1CCCCC1`, the Potency is reported as inconclusive [inhibitor, partial curve, poor fit]. For `Cc1noc(/C=C/N(C)C)c1S(=O)(=O)N1CCCC(C(=O)NCCC2=CCCCC2)C1` (stereo unspecified), the Potency was inconclusive [inhibitor, single point]. `O=C1CSC(=S)N1/N=C/c1c(F)cccc1F` was tested, and the Potency was “inactive”. In the case of `Cc1cccc(C(=O)Nc2ccc3ccccc3c2)c1`, the Potency is reported as inconclusive [inhibitor, single point]. For `O=C(O)c1cccc(CN2C(=O)SC(Nc3cccc4ccccc34)C2=O)c1` (stereo unspecified), the Potency was “inactive”. With `Cc1ccc(C(=O)Nc2cccnc2Oc2ccc(Cl)cc2)cc1` the Potency was inconclusive [inhibitor, single point]. With `CC1CCCC2(C1)NC(=S)c1c(sc3c1CCCC3)N2` (stereo unspecified) the Potency was inconclusive [inhibitor, single point]. In the case of `Cc1cccc(NS(=O)(=O)c2ccc(C(=O)NCC3(N4CCCCC4)CCCCC3)cc2)c1C`, the Potency is reported as inconclusive [inhibitor, partial curve, poor fit]. `COc1cccc(-c2noc(-c3ccoc3C)n2)c1` was tested, and the Potency was “inactive”. In the case of `Cc1ccc(C(C)C)cc1OCC(=O)Nc1ccc(-n2cnnn2)cc1`, the Potency is reported as inconclusive [inhibitor, partial curve, poor fit]. `O=C(CN1CCN(S(=O)(=O)c2ccccc2)CC1)Nc1ccccc1C(=O)c1ccccc1` was tested, and the Potency was inconclusive [inhibitor, single point]. In the case of `Oc1c(Br)cc(Br)c2cccnc12`, the Potency is reported as inconclusive [inhibitor, full curve, poor fit]. With `CC(C)(C)c1ccc(-c2nnc(SCC(=O)NC3CC3)o2)cc1` the Potency was inconclusive [inhibitor, single point]. With `O=C(CCCN1C(=O)/C(=C\c2ccccc2)SC1=S)Nc1ccc(O)cc1` the Potency was inconclusive [inhibitor, full curve, poor fit]. For `CCn1c(=O)n(CC(=O)N(C)Cc2ccccc2)c(=O)c2ccccc21`, the Potency was inconclusive [inhibitor, partial curve, poor fit]. In the case of `CCN1CCN(Cc2ccc(NC(=O)c3ccc(C)c(NC(=O)c4nccnc4N)c3)cc2C(F)(F)F)CC1`, the Potency is reported as “inactive”. In the case of `O=C(CN1CCC(NC(=O)Nc2ccccc2)CC1)Nc1cccc([N+](=O)[O-])c1`, the Potency is reported as inconclusive [inhibitor, partial curve, poor fit]. `COc1cccc(C(=O)N/N=C(\CC(C)C)c2ccccc2)c1` was tested, and the Potency was inconclusive [inhibitor, partial curve, poor fit]. For `CCOC(=O)n1c(=O)n(Cc2ccc(OC)cc2)c2ccccc21`, the activity change, negative = inhibition was inconclusive: -33.8% [inhibitor]. In the case of `CCc1nc2c(OCCc3cccc(OC)c3)cccn2c1N(C)C(=O)c1ccc(C)cc1`, the Potency is reported as “inactive”. `COc1ccccc1C(=O)NC(=S)Nc1ccccc1N1CCCCC1` was tested, and the Potency was inconclusive [inhibitor, partial curve, poor fit]. `Cn1cc(C(c2ccccc2)c2ccc(Cl)s2)c2ccccc21` (stereo unspecified) was tested, and the Potency was inconclusive [inhibitor, single point]. `Cn1c(=O)c(NC2CCCCC2)c2c3c(cccc31)C(=O)c1ccccc1-2` was tested, and the Potency was active: 10 µM. In the case of `CCCc1cc(=O)oc2cc(OCC(=O)NCCc3c[nH]c4ccc(OC)cc34)ccc12`, the Potency is reported as inconclusive [inhibitor, partial curve, poor fit]. `Cc1ccc(-n2c(C)c(C)c3c(NCCCO)ncnc32)cc1` was tested, and the Potency was inconclusive [inhibitor, partial curve, poor fit]. With `COc1ccc(F)c(CN(C)CC2CCCN(CCc3ccc(F)cc3)C2)c1` (stereo unspecified) the Potency was inconclusive [inhibitor, partial curve]. `Cc1cc(-c2ccc(C(C)C)c(S(=O)(=O)N3CCC(C)CC3)c2)on1` was tested, and the Potency was inconclusive [inhibitor, partial curve, poor fit]. In the case of `COc1ccc(/C=N/NC(=S)NCCc2ccccc2)cc1`, the Potency is reported as inconclusive [inhibitor, partial curve, poor fit]. For `CCOc1ccc(C(=O)CC(C(=O)O)N2CCCCC2)cc1` (stereo unspecified), the Potency was inconclusive [inhibitor, partial curve, poor fit]. `CCOc1cccc(NC(=O)C2CC(=O)N(C)C(=Nc3ccc(F)cc3)S2)c1` (stereo unspecified) was tested, and the Potency was inconclusive [inhibitor, single point]. With `COc1ccc(N(CC(=O)NCc2ccccc2OC)S(=O)(=O)c2ccccc2)cc1` the Potency was inconclusive [inhibitor, partial curve, poor fit]. For `O=C(CSc1nc2ccccc2[nH]1)Nc1ccc2c(c1)OCCO2`, the Potency was “inactive”. For `Cc1nc(/C(=N/O)C(N)=O)cs1`, the Potency was inconclusive [inhibitor, single point]. For `COc1cc(NCc2ccccc2)c2ncn(C(C)C)c2c1`, the Potency was inconclusive [inhibitor, partial curve]. With `CCOc1ccccc1NC(=O)CN1C(=O)COc2ccc(S(=O)(=O)N3CCCCC3)cc21` the Potency was inconclusive [inhibitor, single point]. In the case of `CCN1C(=O)CC(C(=O)Nc2ccc(F)cc2)SC1=Nc1cccc(OC)c1` (stereo unspecified), the Potency is reported as inconclusive [inhibitor, single point]. With `COc1ccc(NC(=O)CCCn2c(=O)c3sccc3n(Cc3ccc(C)cc3C)c2=O)cc1` the Potency was inconclusive [inhibitor, partial curve]. In the case of `COCCCNC(=S)N1CCCC(c2nc3cc(C)c(C)cc3[nH]2)C1` (stereo unspecified), the Potency is reported as inconclusive [inhibitor, partial curve, poor fit]. With `Cc1c(C(=O)Nc2ccccc2)cnn1-c1ccccc1` the Potency was inconclusive [inhibitor, single point]. With `COc1ccc2c(c1OC)C(=O)N1c3ccccc3C(=O)N(c3ccccc3)C21` (stereo unspecified) the Potency was inconclusive [inhibitor, partial curve, poor fit]. With `C[C@@]12C(=O)N(Cc3ccc(-c4ccccc4)cc3)CC(=O)N1[C@H](/C=C/c1ccccc1)[C@@H]1C(=O)N(c3ccccc3)C(=O)[C@@H]12` the Potency was inconclusive [inhibitor, single point].
